# Measured values taken from the supplement of paper PMC8728848.
# This is one part of the list.
# B1: Si Bti9 1b-V5-his (Solanum lycopersicum) (protein)
# chain: MQCNRGCDLALASFYVWRGSNLTLISEMFSTSIADIVSYNNRDNIPNQDSVIAGTRINIPFRCDCLNDGEVLGHAFPYRVKSGDTYDLVARNYSDLTTAQWMMKFNSYPENNIPNTVNLSVVVNCSCGNSDVSKDFGLFVTYPVRAEDNLTSVASAANVSEDIIRRYNPAAVSILDIGQGIIYIPGRDRNGNFPPLPTSTDGLSGGAKKGGRADPAFLYKVVINSKLEGKPIPNPLLGLDSTRTGHHHHHH
# How the values were obtained:
# Experiment in all cases: glycan array binding signal (z-score within array); higher = stronger binding
# Settings in all cases: glycan notation: IUPAC condensed, linker removed
# [1] = molecular target: Gal(b1-4)GlcNAc(b1-2)Man(a1-3)[Gal(b1-4)GlcNAc(b1-2)Man(a1-6)]Man(b1-4)GlcNAc(b1-4)[Fuc(a1-6)]GlcNAc
# In short: (§1)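 From the Consortium for Functional Glycomics database, 3228 arrays were curated, keeping only those whose protein sequence was available. Binding is given as a within-array Z-score averaged across arrays sharing a protein sequence and across linkers. Negative Z-scores can be read as non-binding.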
# [2] = molecular target: Gal(b1-4)GlcNAc(b1-2)Man(a1-3)[Gal(b1-4)GlcNAc(b1-2)Man(a1-6)][Gal(b1-4)GlcNAc(b1-4)]Man(b1-4)GlcNAc(b1-4)[Fuc(a1-6)]GlcNAc
# In short: as §1
# [3] = molecular target: Gal(b1-4)GlcNAc(b1-2)Man(a1-3)[Gal(b1-4)GlcNAc(b1-2)Man(a1-6)][GlcNAc(b1-4)]Man(b1-4)GlcNAc(b1-4)[Fuc(a1-6)]GlcNAc
# In short: as §1
# [4] = molecular target: Gal(b1-4)GlcNAc(b1-2)Man(a1-3)[GlcNAc(b1-2)Man(a1-6)]Man(b1-4)GlcNAc(b1-4)GlcNAc
# In short: as §1
# [5] = molecular target: Gal(b1-4)GlcNAc(b1-2)Man(a1-3)[GlcNAc(b1-4)][Gal(b1-4)GlcNAc(b1-2)Man(a1-6)]Man(b1-4)GlcNAc(b1-4)GlcNAc
# In short: as §1
# [6] = molecular target: Gal(b1-4)GlcNAc(b1-2)Man(a1-3)[Man(a1-6)]Man(b1-4)GlcNAc(b1-4)GlcNAc
# In short: as §1
# [7] = molecular target: Gal(b1-4)GlcNAc(b1-2)Man(a1-6)Man(b1-4)GlcNAc(b1-4)GlcNAc
# In short: as §1
# [8] = molecular target: Gal(b1-4)GlcNAc(b1-2)Man(a1-6)[GlcNAc(b1-2)Man(a1-3)]Man(b1-4)GlcNAc(b1-4)GlcNAc
# In short: as §1
# [9] = molecular target: Gal(b1-4)GlcNAc(b1-2)Man(a1-6)[Man(a1-3)]Man(b1-4)GlcNAc(b1-4)GlcNAc
# In short: as §1
# [10] = molecular target: Gal(b1-4)GlcNAc(b1-2)[Gal(b1-4)GlcNAc(b1-4)]Man(a1-3)[Gal(b1-4)GlcNAc(b1-2)Man(a1-6)]Man(b1-4)GlcNAc(b1-4)GlcNAc
# In short: as §1
# [11] = molecular target: Gal(b1-4)GlcNAc(b1-2)[Gal(b1-4)GlcNAc(b1-4)]Man(a1-3)[Gal(b1-4)GlcNAc(b1-2)[Gal(b1-4)GlcNAc(b1-6)]Man(a1-6)]Man(b1-4)GlcNAc(b1-4)GlcNAc
# In short: as §1
# [12] = molecular target: Gal(b1-4)GlcNAc(b1-2)[Gal(b1-4)GlcNAc(b1-4)]Man(a1-3)[GlcNAc(b1-4)][Gal(b1-4)GlcNAc(b1-2)Man(a1-6)]Man(b1-4)GlcNAc(b1-4)GlcNAc
# In short: as §1
# [13] = molecular target: Gal(b1-4)GlcNAc(b1-2)[Gal(b1-4)GlcNAc(b1-4)]Man(a1-3)[GlcNAc(b1-4)][Gal(b1-4)GlcNAc(b1-2)[Gal(b1-4)GlcNAc(b1-6)]Man(a1-6)]Man(b1-4)GlcNAc(b1-4)GlcNAc
# In short: as §1
# [14] = molecular target: Gal(b1-4)GlcNAc(b1-2)[Gal(b1-4)GlcNAc(b1-6)]Man(a1-6)[Gal(b1-4)GlcNAc(b1-2)Man(a1-3)]Man(b1-4)GlcNAc(b1-4)GlcNAc
# In short: as §1
# [15] = molecular target: Gal(b1-4)GlcNAc(b1-2)[Gal(b1-4)GlcNAc(b1-6)]Man(a1-6)[Gal(b1-4)GlcNAc(b1-2)Man(a1-3)]Man(b1-4)GlcNAc(b1-4)[Fuc(a1-6)]GlcNAc
# In short: as §1
# [16] = molecular target: Gal(b1-4)GlcNAc(b1-2)[Gal(b1-4)GlcNAc(b1-6)]Man(a1-6)[GlcNAc(b1-4)][Gal(b1-4)GlcNAc(b1-2)Man(a1-3)]Man(b1-4)GlcNAc(b1-4)GlcNAc
# In short: as §1
# [17] = molecular target: Gal(b1-4)GlcNAc(b1-2)[Gal(b1-4)GlcNAc(b1-6)]Man(a1-6)[GlcNAc(b1-4)][Gal(b1-4)GlcNAc(b1-2)[Gal(b1-4)GlcNAc(b1-4)]Man(a1-3)]Man(b1-4)GlcNAc(b1-4)[Fuc(a1-6)]GlcNAc
# In short: as §1
# [18] = molecular target: Gal(b1-4)GlcNAc(b1-3)Gal(b1-3)GalNAc
# In short: as §1
# [19] = molecular target: Gal(b1-4)GlcNAc(b1-3)Gal(b1-3)GlcNAc
# In short: as §1
binder,measurement,setting,value
B1,glycan array binding signal (z-score),[1],0.401
same,glycan array binding signal (z-score),[2],-0.346
same,glycan array binding signal (z-score),[3],-0.389
same,glycan array binding signal (z-score),[4],-0.243
same,glycan array binding signal (z-score),[5],-0.102
same,glycan array binding signal (z-score),[6],-0.294
same,glycan array binding signal (z-score),[7],-0.183
same,glycan array binding signal (z-score),[8],-0.277
same,glycan array binding signal (z-score),[9],-0.273
same,glycan array binding signal (z-score),[10],-0.217
same,glycan array binding signal (z-score),[11],-0.237
same,glycan array binding signal (z-score),[12],-0.243
same,glycan array binding signal (z-score),[13],-0.196
same,glycan array binding signal (z-score),[14],-0.169
same,glycan array binding signal (z-score),[15],-0.189
same,glycan array binding signal (z-score),[16],-0.378
same,glycan array binding signal (z-score),[17],-0.309
same,glycan array binding signal (z-score),[18],-0.268
same,glycan array binding signal (z-score),[19],-0.249
